Patent US20230219898A1, “COMPOUNDS AND METHODS FOR BLOCKING APOPTOSIS AND INDUCING AUTOPHAGY” (President and Fellows of Harvard College, priority 2020, published 2023)
At least one read-out could not be matched to a standard name with certainty.

tested on: H4-LC3-GFP cells; experiment: Autophagy assay, LC3-GFP intensity (autophagy index); format: cell-based; conditions: index relative to Rapamycin x100

Row | SMILES | Autophagy index (H4-LC3-GFP)
1 | N#Cc1cccc(CSC(=N)N)c1 [Compound 11] | 42.4
2 | Cc1ccc(NC(=O)CSC2=NCCN2)cc1 [Compound 4] | 48.2
3 | FC(F)=C(F)CCSC1=NCCN1 [Compound 8] | 53.4
4 | Cc1ccccc1NC(=O)CSC1=NCCN1 [Compound 3] | 23.3
5 | ClC1(Cl)C[C@H]1CSC1=NCCN1 [Compound 6] | 52.2
6 | COc1ccc(CSC(=N)N)cc1[N+](=O)[O-] [Compound 2] | 34.4
7 | O=C(CSC1=NCCN1)NC1CCCCCC1 [ICCB-19] | 50.2
8 | O=C(CSC1=NCCN1)N1CCc2ccccc21 [ICCB-17] | 18.5
9 | N=C(N)SCc1ccccc1F [Compound 1] | 40.5
10 | N#Cc1ccc(CSC(=N)N)cc1 [Compound 7] | 43.1
11 | COc1ccc(NC(=O)CSC2=NCCN2)cc1 [Compound 5] | 26.5
12 | COc1cc(CSC2=NCCN2)cc(OC)c1OC [Compound 9] | 47.1
13 | O=C(NCCSC1=NCCN1)c1cccnc1Oc1ccccc1 [Compound 10] | 42.0
